Inconclusive means that the source gave no clear call. Such entries were picked first, then a sample of the others. For some of these results: No potency is given beside an inconclusive call; the fits are too rough. Calls of active or inactive are those of the source. Unless noted, the call rests on the fitted dose curve; in most records, active means well fitted curve in either direction with a large enough effect (not every such curve was filed as active); inconclusive means small, poorly fitted or top-dose-only effect, or another doubt; inactive means flat fitted curve, though single readings scatter.
Key:
[1] = NFAT Signaling Pathway (AID 444); details: Jurkat NFAT-bla M1, carbachol, beta-lactamase ratio, 5 h; at 7.69 µM (top of the series) unless noted;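 further: carbachol stimulus at about its EC50 of 1 µM final; on the % scale 0 is the no-effect control and ±100 the full control effect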
How it was run: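 Read-out: CCF4 FRET ratio (460 nm/530 nm) after 1 h RT dye loading, used for %activity and AC50 from titration series. Cells: Jurkat NFAT-β-lactamase/M1 line, treated with compound plus 1 uM carbachol for 5 h, 37 °C.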

[2] = target: 3',5'-cyclic-AMP phosphodiesterase 4B (Homo sapiens) (UniProt Q07343); assay: qHTS Assay for Inhibitors of PDE-IV (AID 607; active means well fitted activation curve with a large enough effect in the main read-out, with a control signal flat, not every such curve was filed as active; inconclusive means small, poorly fitted or top-dose-only effect, or effect the other way, or a change in a side signal; further: potency means the concentration at half of the fitted maximal effect); details: HEK293 ACTOne CNG channel cells, membrane potential fluorescence; activation (PDE inhibition): at 22.9 µM (top of the series)
Sequence of UniProt Q07343 (Q07343 whole entry, looked up): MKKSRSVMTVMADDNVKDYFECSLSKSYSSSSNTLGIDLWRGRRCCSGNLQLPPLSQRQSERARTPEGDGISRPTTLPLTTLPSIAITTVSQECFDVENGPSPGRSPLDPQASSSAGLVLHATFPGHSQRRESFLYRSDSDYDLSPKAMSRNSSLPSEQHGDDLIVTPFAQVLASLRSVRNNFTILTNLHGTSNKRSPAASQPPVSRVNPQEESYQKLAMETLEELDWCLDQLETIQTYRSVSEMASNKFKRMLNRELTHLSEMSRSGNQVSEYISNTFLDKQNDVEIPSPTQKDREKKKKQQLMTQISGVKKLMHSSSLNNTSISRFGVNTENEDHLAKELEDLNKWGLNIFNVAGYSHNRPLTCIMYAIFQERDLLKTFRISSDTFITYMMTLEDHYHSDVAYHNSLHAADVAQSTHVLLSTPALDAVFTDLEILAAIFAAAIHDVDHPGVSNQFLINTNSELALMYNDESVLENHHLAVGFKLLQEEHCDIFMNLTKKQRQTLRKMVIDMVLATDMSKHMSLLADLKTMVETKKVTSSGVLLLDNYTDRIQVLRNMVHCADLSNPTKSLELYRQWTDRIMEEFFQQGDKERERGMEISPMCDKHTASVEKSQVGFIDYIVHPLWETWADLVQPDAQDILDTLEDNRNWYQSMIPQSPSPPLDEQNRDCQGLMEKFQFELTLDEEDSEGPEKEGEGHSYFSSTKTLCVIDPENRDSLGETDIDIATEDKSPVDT
How it was run: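 ACTOne HEK293 cells carry a modified cAMP-gated CNG channel and express endogenous PDE4; plated 1000 cells/well, compounds up to 22.9 uM final. Membrane-potential dye fluorescence (ex 535/em 590) was read; parental cells received 10 uM forskolin + 100 uM RO 20-1724.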

[3] = target: Ubiquitin carboxyl-terminal hydrolase 1 (Homo sapiens) (UniProt O94782); assay: Inhibitors of USP1/UAF1: Pilot qHTS (AID 504865; active means well fitted curve in the direction sought with a large enough effect; inconclusive means small, poorly fitted or top-dose-only effect, or another doubt; inactive means no such curve, though single readings can be large; an effect the other way counts as inactive or inconclusive;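 further: rhodamine fluorescence freed from ubiquitin-rhodamine substrate followed over time; potency means the concentration at half of the fitted maximal effect; nearly all actives have a fitted effect of over 35% in size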)
Sequence of UniProt O94782 (O94782 whole entry, looked up): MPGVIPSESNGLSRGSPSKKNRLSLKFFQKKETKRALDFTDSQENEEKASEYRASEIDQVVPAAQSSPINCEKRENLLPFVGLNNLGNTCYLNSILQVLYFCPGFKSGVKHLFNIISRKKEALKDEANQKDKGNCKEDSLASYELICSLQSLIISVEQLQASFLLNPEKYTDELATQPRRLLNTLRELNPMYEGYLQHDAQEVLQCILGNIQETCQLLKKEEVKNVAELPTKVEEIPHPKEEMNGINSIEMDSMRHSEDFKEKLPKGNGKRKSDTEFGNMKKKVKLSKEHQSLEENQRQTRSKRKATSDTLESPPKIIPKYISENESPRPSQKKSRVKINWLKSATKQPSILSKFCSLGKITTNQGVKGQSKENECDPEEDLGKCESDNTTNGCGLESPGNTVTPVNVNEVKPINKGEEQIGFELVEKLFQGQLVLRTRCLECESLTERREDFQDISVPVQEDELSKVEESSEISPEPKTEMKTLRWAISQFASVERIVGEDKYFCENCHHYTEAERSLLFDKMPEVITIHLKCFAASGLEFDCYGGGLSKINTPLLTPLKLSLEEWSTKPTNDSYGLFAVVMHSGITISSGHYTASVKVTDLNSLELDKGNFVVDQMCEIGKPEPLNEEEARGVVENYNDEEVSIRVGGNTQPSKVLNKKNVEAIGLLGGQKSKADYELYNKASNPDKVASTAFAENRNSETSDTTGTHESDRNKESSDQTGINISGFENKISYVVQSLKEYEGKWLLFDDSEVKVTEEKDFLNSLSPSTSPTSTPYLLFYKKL
How it was run: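 Deubiquitinase activity followed as kinetic rhodamine fluorescence release from 150 nM Ub-Rho. 1 nM USP1/UAF1 with compound, after 15 min room-temperature preincubation, in HEPES pH 7.8 buffer containing TCEP, EDTA, BSA and Tween-20.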

[4] = Primary qHTS for small molecule stabilizers of the endoplasmic reticulum resident proteome: Secreted ER Calcium Modulated Protein (SERCaMP) assay (AID 1508630; active means well fitted curve in the direction sought with a large enough effect; inconclusive means small, poorly fitted or top-dose-only effect, or another doubt; inactive means no such curve, though single readings can be large; an effect the other way counts as inactive or inconclusive; further: potency means the concentration at half of the fitted maximal effect; on activity change, negative = inhibition: on the % scale 0 is the no-effect control and ±100 the full control effect); details: SH-SY5Y GLuc-SERCaMP (Gaussia luciferase released on ER calcium loss) secretion, thapsigargin, luminescence; activity change, negative = inhibition: at 38.4 µM (top of the series) unless noted
How it was run: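 GLuc-SERCaMP-expressing SH-SY5Y cells, pretreated 16 h with compound, are challenged with thapsigargin to empty ER calcium stores; after 4 h, coelenterazine is added directly to the medium and luminescence is imaged.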

[5] = Stat Signaling Pathway (AID 446); details: ME-180 SIE beta-lactamase reporter, IL-6 stimulated, 5 h; at 7.69 µM (top of the series) unless noted;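 further: ME-180 cervical cancer cells given 40 pM IL-6 alongside compound; SIE-controlled beta-lactamase reporter measured as 460/530 nm FRET emission ratio; top concentration of the series differs between compounds; on the % scale 0 is the no-effect control and ±100 the full control effect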
How it was run: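 ME-180 SIE-bla cells; overnight plating; cpd + IL-6 40 pM, 5 h, 37 C; LiveBLAzer 2.5 h RT; 460/530 nm emission ratio. Normalized to 300 pM IL-6 and 125 nM JAK inhibitor controls.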

[6] = qHTS Assay for Identification of Small Molecule Agonists for Hypoxia Response Element Signaling Pathway (AID 914; active means well fitted activation curve with a large enough effect in the signal ratio, with a control signal flat, not every such curve was filed as active; inconclusive means small, poorly fitted or top-dose-only effect, or effect the other way, or a change in a side signal; the % refers to the signal ratio; further: potency means the concentration at half of the fitted maximal effect; on activation: top concentration of the series differs between compounds; % of control where 0% means no effect); details: ME-180 (cervical carcinoma) HRE-bla reporter, beta-lactamase ratio, CoCl2, 17 h; activation: active compounds read high
How it was run: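 In Opti-MEM containing 0.5% dialyzed FBS and 10 mM HEPES, ME-180 HRE-bla cells received a compound titration and EC50 CoCl2. They were incubated 17 hours, then CCF4-loaded 2.5 hours at room temperature before ratio reading.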

[7] = target: Cytochrome P450 2D6 (Homo sapiens) (UniProt P10635); assay: qHTS Assay for Inhibitors and Substrates of Cytochrome P450 2D6 (AID 891; active means well fitted curve in the direction sought with a large enough effect; inconclusive means small, poorly fitted or top-dose-only effect, or another doubt; inactive means no such curve, though single readings can be large; an effect the other way counts as inactive or inconclusive;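 further: luciferin methyl ether substrate demethylated by CYP2D6 with NADPH regeneration; potency means the concentration at half of the fitted maximal effect; nearly all actives have a fitted effect of over 60% in size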)
Sequence of UniProt P10635 (P10635 whole entry, looked up): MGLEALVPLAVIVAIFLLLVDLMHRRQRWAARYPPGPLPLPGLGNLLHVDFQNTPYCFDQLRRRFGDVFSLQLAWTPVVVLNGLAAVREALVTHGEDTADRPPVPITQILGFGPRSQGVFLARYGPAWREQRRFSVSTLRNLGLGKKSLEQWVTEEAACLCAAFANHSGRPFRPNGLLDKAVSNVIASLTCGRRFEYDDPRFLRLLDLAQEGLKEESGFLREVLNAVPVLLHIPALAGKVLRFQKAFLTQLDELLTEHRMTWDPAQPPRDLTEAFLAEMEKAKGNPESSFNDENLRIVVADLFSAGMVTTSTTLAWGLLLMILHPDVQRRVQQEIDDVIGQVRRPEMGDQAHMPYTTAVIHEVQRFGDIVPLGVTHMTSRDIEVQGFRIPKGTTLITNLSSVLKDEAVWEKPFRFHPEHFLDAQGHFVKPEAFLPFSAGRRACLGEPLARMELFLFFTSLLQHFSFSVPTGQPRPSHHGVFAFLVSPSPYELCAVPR
How it was run: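 Human CYP2D6 (5 nM) with 30 uM Luciferin-ME EGE (at Km) in 100 mM KPO4, compound preincubated 10 min, then NADPH regeneration system for 60 min at room temperature. Luciferin read by luminescence; normalized to 1.43 uM quinidine.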

[8] = target: Cytochrome P450 3A4 (Homo sapiens) (UniProt P08684); assay: qHTS Assay for Activators of Cytochrome P450 3A4 (AID 885; active means well fitted curve in the direction sought with a large enough effect; inconclusive means small, poorly fitted or top-dose-only effect, or another doubt; inactive means no such curve, though single readings can be large; an effect the other way counts as inactive or inconclusive; further: potency means the concentration at half of the fitted maximal effect; nearly all actives have a fitted effect of over 65% in size)
Sequence of UniProt P08684 (P08684 whole entry, looked up): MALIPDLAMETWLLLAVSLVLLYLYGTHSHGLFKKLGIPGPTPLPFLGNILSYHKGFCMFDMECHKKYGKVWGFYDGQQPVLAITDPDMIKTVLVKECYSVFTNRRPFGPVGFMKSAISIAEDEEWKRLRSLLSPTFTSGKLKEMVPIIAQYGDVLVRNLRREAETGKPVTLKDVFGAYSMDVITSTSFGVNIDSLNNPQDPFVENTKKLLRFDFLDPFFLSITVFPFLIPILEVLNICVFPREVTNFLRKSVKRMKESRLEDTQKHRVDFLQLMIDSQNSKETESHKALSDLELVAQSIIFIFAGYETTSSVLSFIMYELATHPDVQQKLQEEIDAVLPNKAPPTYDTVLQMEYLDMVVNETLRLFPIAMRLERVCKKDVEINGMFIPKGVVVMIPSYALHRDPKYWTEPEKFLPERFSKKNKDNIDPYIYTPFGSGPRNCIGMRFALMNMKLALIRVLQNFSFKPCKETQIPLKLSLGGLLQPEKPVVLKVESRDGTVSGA
How it was run: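 20nM CYP3A4 + 25uM Luciferin-PPXE (=KM), 200mM KPO4; cpd 10 min RT; NADPH regen, 60 min RT; stop w/ detection buffer, 20 min; luminescence. Normalized to 57 uM ketoconazole.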

[9] = target: Cytochrome P450 2C9 (Homo sapiens) (UniProt P11712); assay: qHTS Assay for Inhibitors and Substrates of Cytochrome P450 2C9 (AID 883; active means well fitted curve in the direction sought with a large enough effect; inconclusive means small, poorly fitted or top-dose-only effect, or another doubt; inactive means no such curve, though single readings can be large; an effect the other way counts as inactive or inconclusive; further: potency means the concentration at half of the fitted maximal effect; nearly all actives have a fitted effect of over 60% in size)
Sequence of UniProt P11712 (P11712 whole entry, looked up): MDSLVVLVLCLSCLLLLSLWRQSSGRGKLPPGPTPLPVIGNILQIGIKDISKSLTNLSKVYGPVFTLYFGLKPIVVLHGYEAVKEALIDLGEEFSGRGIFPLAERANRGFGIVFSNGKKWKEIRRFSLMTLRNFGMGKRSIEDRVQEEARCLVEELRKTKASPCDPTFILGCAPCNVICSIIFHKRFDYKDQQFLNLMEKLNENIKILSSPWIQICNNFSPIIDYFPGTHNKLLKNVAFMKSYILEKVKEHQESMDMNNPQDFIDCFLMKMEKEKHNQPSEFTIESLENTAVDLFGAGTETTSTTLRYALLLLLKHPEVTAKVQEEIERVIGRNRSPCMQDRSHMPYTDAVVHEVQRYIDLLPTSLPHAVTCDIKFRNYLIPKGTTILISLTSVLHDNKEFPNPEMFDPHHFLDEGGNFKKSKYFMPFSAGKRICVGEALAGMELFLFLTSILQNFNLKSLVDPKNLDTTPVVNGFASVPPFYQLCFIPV
How it was run: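 Inhibition of CYP2C9 is scored as loss of luminescence, with 57uM sulphaphenazole defining 100% inhibition. Substrate Luciferin-H is used at 100uM, equal to its KM; enzyme at 10nM in 25mM KPO4, 60 min at 37C with NADPH regeneration.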

[10] = target: Cytochrome P450 3A4 (Homo sapiens) (UniProt P08684); assay: qHTS Assay for Inhibitors and Substrates of Cytochrome P450 3A4 (AID 884; active means well fitted curve in the direction sought with a large enough effect; inconclusive means small, poorly fitted or top-dose-only effect, or another doubt; inactive means no such curve, though single readings can be large; an effect the other way counts as inactive or inconclusive; further: potency means the concentration at half of the fitted maximal effect; nearly all actives have a fitted effect of over 50% in size); details: recombinant CYP3A4, Luciferin-PPXE luminescence; activity change, negative = inhibition: at 57.1 µM (top of the series)
How it was run: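 20 nM human CYP3A4 with 25 uM Luciferin-PPXE (at KM) in 200 mM KPO4, preincubated 10 min with compound; NADPH regeneration started a 60 min RT reaction. Luciferin detected by luminescence, normalized to 57 uM ketoconazole as full inhibition.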

[11] = target: Mitogen-activated protein kinase 10 (Mus musculus) (UniProt Q61831); assay: JNK3 AlphaScreen Assay (AID 530); details: JNK3 lysate, c-Jun phosphorylation; activity change, negative = inhibition: at 57.1 µM (top of the series);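 further: kinase came from lysate of stimulated human HepG2 cells; signal reports phosphorylation of biotinylated GST-cJun 1-79 at Ser73 with 10 µM ATP; potency means the concentration at half of the fitted maximal effect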
How it was run: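 Compound titrations were preincubated 15 minutes at room temperature with substrate, antibody and pre-activated JNK3-containing HepG2 lysate. Reactions were started with 10 uM ATP and stopped with EDTA-containing bead buffer for AlphaScreen detection.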
Tags describe the fitted curve by direction and shape or compound fluorescence and quenching.

For Cc1cccc(CNc2ncncc2-c2ccccc2C(F)(F)F)c1, the activity change, negative = inhibition [1] was inactive: -6.75%, the Potency [2] was inconclusive [activator, partial curve] and the Potency [3] was inconclusive [inhibitor, partial curve, poor fit]. For the same molecule, the Potency [4] was inconclusive [inhibitor, partial curve, poor fit].
With COc1ccccc1CN1CCCC2(CCN(S(C)(=O)=O)CC2)C1 the activity change, negative = inhibition [1] was inactive: -28.3% and the Potency [4] was “inactive”.
In the case of O=c1c(-c2ccc(F)cc2)nc2cnc(N3CCOCC3)nc2n1C1CC1, the activity change, negative = inhibition [1] is reported as inconclusive: 42.9% [activator], the activity, negative = inhibition [5] is reported as inconclusive: 41.7% [activator] and the Potency [6] is reported as inconclusive [activator, partial curve]. For the same molecule, the Potency [4] was inconclusive [inhibitor, full curve].
In the case of COc1ccccc1-c1nccc(NCc2ccccc2)n1, the activity change, negative = inhibition [1] is reported as inactive: 1.11%, the Potency [2] is reported as inconclusive [rising, partial curve] and the Potency [3] is reported as active: 22.4 µM. The Potency [4] was inconclusive [inhibitor, single point].
With COC(=O)N1CCC2(CC1)CCN(C(c1ccccc1)c1ccccc1)CC2 the activity change, negative = inhibition [1] was inconclusive: -46.4% [inhibitor], the activity, negative = inhibition [5] was inconclusive: -89.7% [inhibitor] and the Potency [7] was active: 7.94 µM. For the same molecule, the Potency [4] was “inactive”.
For CCNc1ncc2nc(-c3cccs3)c(=O)n(-c3ccc(OC)cc3)c2n1, the activity change, negative = inhibition [1] was inactive: -15.9%, the activity, negative = inhibition [5] was inconclusive: 20.3% [activator] and the Potency [2] was inconclusive [activator, partial curve]. The Potency [6] was inconclusive [activator, full curve] and the Potency [4] was “inactive”.
For c1ccc(C(c2ccccc2)N2CC3(CCNCC3)C2)cc1, the activity change, negative = inhibition [1] was inconclusive: -71.9% [inhibitor], the activity, negative = inhibition [5] was inconclusive: 8.02% [activator] and the Potency [8] was inconclusive [activator, partial curve]. The Potency [4] was inconclusive [inhibitor, partial curve, poor fit].
With COCC(=O)N1CCC2(CCN(Cc3ccncc3)CC2)CC1 the activity change, negative = inhibition [1] was inactive: -6.67% and the Potency [4] was inconclusive [inhibitor, partial curve].
For O=c1c(CCc2ccccc2)nc2cnc(N3CCOCC3)nc2n1C[C@H]1CCCO1, the activity change, negative = inhibition [1] was inactive: -4.34% and the Potency [4] was inconclusive [inhibitor, single point].
With COc1ccc(C(=O)N2CCC3(CCN(C(=O)Nc4cccc(F)c4)CC3)CC2)cc1 the activity change, negative = inhibition [1] was inactive: 7.36% and the Potency [4] was inconclusive [inhibitor, single point].
With O=C(c1csnn1)N1CCC2(CCN(Cc3ccccc3)CC2)CC1 the activity change, negative = inhibition [1] was inconclusive: -68.5% [inhibitor] and the Potency [4] was “inactive”.
With CN1CC[C@@]2(CCCN(C(=O)c3cc(C(F)(F)F)cc(C(F)(F)F)c3)C2)C1 the activity change, negative = inhibition [1] was inconclusive: -31.5% [inhibitor] and the Potency [4] was “inactive”.
For CN1CC[C@@]2(CCCN(C(=O)c3cccc(F)c3)C2)C1, the activity change, negative = inhibition [1] was inactive: -2.53% and the Potency [4] was “inactive”.
With c1ccc2c(Nc3ccncc3)nc(-c3ccc4c(c3)OCO4)nc2c1 the activity change, negative = inhibition [1] was inconclusive: -39.6% [inhibitor], the Potency [2] was inconclusive [activator, partial curve] and the Potency [9] was inconclusive [inhibitor, single point]. The Potency [10] was active: 0.501 µM, the activation [6] was inactive: -1.29% and the Potency [3] was active: 39.8 µM. For the same molecule, the Potency [4] was inconclusive [inhibitor, single point].
For O=c1c(-c2cc(F)cc(F)c2)nc2cnc(N3CCOCC3)nc2n1CCc1ccccc1, the activity change, negative = inhibition [1] was inconclusive: 84.5% [activator], the activity, negative = inhibition [5] was inconclusive: 57.3% [activator] and the Potency [6] was inconclusive [activator, single point]. For the same molecule, the Potency [4] was “inactive”.
For O=C(Oc1ccccc1)N1CCC[C@@]2(CCN(c3ccccc3)C2)C1, the activity change, negative = inhibition [1] was inconclusive: -39.6% [inhibitor], the activity, negative = inhibition [5] was inactive: -1.51% and the activation [6] was inconclusive: -20.4%. For the same molecule, the Potency [4] was “inactive”.
In the case of Cn1cccc1C(=O)N1CCC2(CCCN(C(=O)Nc3cccc(C#N)c3)C2)CC1, the activity change, negative = inhibition [1] is reported as inconclusive: -55.2% [inhibitor] and the Potency [4] is reported as “inactive”.
In the case of COc1ccc(-n2c(=O)c(-c3cn(C)c4ccccc34)nc3cnc(N4CCNCC4)nc32)cc1, the activity change, negative = inhibition [1] is reported as inconclusive: 44.5% [activator], the activity, negative = inhibition [5] is reported as inconclusive: 68.5% [activator] and the Potency [11] is reported as inconclusive [activator, partial curve]. The Potency [6] was active: 3.16 µM and the Potency [4] was inconclusive [inhibitor, full curve, poor fit].

Source: PubChem BioAssay (NCATS)
